One may read the Kd as a measure of binding affinity in units of concentration. High values mean a looser complex, low ones a tighter complex.

The text below walks through data of US20240190987A1, “Engineered EpCam Binding Antibodies” (TigaTX, priority 2021, published 2024).

The nature of data set [1]: Differential scanning fluorimetry (DSF) melting temperature. It counts as physicochemical. How it is done: DSF was performed on a LC480 Lightcycler Instrument II (Roche). Purified recombinant protein was diluted to 5 μM in DSF buffer (PBS, pH 7.4, Sypro Orange 5×) with small molecule (10 μM VTX) or vehicle (0.05% DMSO) and then heated with a temperature gradient (0.01° C./s) from 25 to 95° C. Data were continuously acquired at ˜465 nm (excitation) and ˜580 nm (emission). Data was analyzed to generate first derivative curves in which the curve maximum was reported as the melting temperature of the protein.

Another data set relates to HCT-116 target cells. The data set is described as follows: TDCC co-culture assay, HCT-116 target cells. The class given is cell-based, human. Conditions: for TDCC in the absence of indinavir / indinavir dependence: HCT-116, DMSO vehicle vs indinavir. The source says: (§1) Leukapheresis packs were obtained from deidentified healthy adult donors (StemCell Technologies, Vancouver, BC). Peripheral blood mononuclear cells (PBMCs) were first isolated using the EasySep Direct Human PBMC Kit (StemCell Technologies). Human T cells were magnetically isolated from the PBMCs using the EasySep Human T cell Isolation Kit (StemCell Technologies). T cells were cryopreserved in DMEM with 10% FBS and 10% DMSO and thawed the day of experiments.
Co-culture assays were used to assess T-cell activation (CD69 upregulation), cytokine production or T-cell-dependent cellular cytotoxicity (TDCC) of target cells. Flat-bottom 96-well plates were seeded with 5,000 target cells in complete growth media (DMEM+10% FBS+1% penicillin/streptomycin) 16-24 hrs before the assay. Antibody drugs were added in 10 μL growth media and incubated for at least 10 min at 37° C. Indinavir or vehicle control was added in 10 μL growth media. Magnetically isolated human T-cells were thawed, washed, and resuspended in complete growth media, then added to target cells (50,000 T cells per well) in 80 μL growth media for a final assay well volume of 100 μL. The final effector:target (E:T) ratio was 10:1. Assay plates were incubated at 37° C. with 5% CO2 for 66-70 hr depending on the experiment. T-cells were transferred to a U-bottom 384-well plate and spun (600 rcf×5 min). Supernatants were stored at −20° C. for later analysis of cytokines. T-cells were resuspended in CF405M viability dye (0.5 μM, Biotium, Fremont, CA) in PBS for 10 min at 37° C. At the end of viability staining, cells were fixed by adding methanol-free paraformaldehyde (Electron Microscopy Sciences, Hatfield, PA) to a final concentration of 1% for 10 min at room temperature. T-cells were spun (600 rcf×5 min) and supernatant was aspirated. T-cells were stained with FITC-conjugated anti-human CD45 (BioLegend, San Diego, CA) at 1 pg/mL final dilution and PE-conjugated anti-human CD69 (BioLegend, San Diego, CA) at 400 ng/mL final dilution for 30 minutes at room temperature in the dark, then immediately run an IntelliCyt® iQue3 flow cytometer (Sartorius AG, Göttingen, Germany). While T cells were being processed, target cells were incubated with CellTiter-Glo 2.0 (Promega, Madison, WI) for 15 min at room temperature with shaking then read for luciferase light emission on a GloMax Explorer plate reader using default settings. Specific Cytotoxicity (%) was calculated from the relative luminescence unit values (RLU) using the formula: [1−(experimental RLU/vehicle-treated RLU))×100]. The frequency of CD69+ T-cells (%) was calculated as the percentage of CD69-positive events within the CF405M-negative population. Dose-response curves and EC50 values were calculated in GraphPad Prism 9 software (GraphPad Software San Diego, CA).

Data set [2] relates to human T-cells with HCT-116 target cells. In words: T-cell activation (CD69 upregulation) in co-culture with HCT-116. The class given is cell-based. The settings on record: anti-EpCAM T-LITE, FIG. 25.
Source text: as §1
Co-culture assays were used to assess T-cell activation (CD69 upregulation), cytokine production or T-cell-dependent cellular cytotoxicity (TDCC) of target cells. […] While T cells were being processed, target cells were incubated with CellTiter-Glo 2.0 (Promega, Madison, WI) for 15 min at room temperature with shaking then read for luciferase light emission on a GloMax Explorer plate reader using default settings. Specific Cytotoxicity (%) was calculated from the relative luminescence unit values (RLU) using the formula: [1−(experimental RLU/vehicle-treated RLU))×100]. The frequency of CD69+ T-cells (%) was calculated as the percentage of CD69-positive events within the CF405M-negative population. Dose-response curves and EC50 values were calculated in GraphPad Prism 9 software (GraphPad Software San Diego, CA).

A short description of data set [3]: BLI binding of LS2A variants to biotin-IDV. Conditions: LS2A R4 variants (Table 21). The method, then:
In R1 of engineering, point mutations were made to remove an oxidation site, deamidation sites, or a hydrophobic residue. In addition, several murine back mutations were tested to improve humanization. Binding kinetics were measured to biotin-IDV and LS2B Ab0637.
Bio-layer interferometry (BLI) data were measured using an Octet RED384 (ForteBio) instrument. Antigens of interest were immobilized on an AHC biosensor and loaded until a 0.4-0.6-nm signal was achieved. Purified antibodies were used as the analyte premixed with 10 μM Indinavir or 0.05% DMSO vehicle. PBSTB (PBS, pH 7.4, 0.05% Tween-20, 0.2% BSA) was used for all buffers for BLI. Data were analyzed using ForteBio Octet analysis software and kinetic parameters were determined using a 1:1 monovalent binding model.
A general note: Biolayer interferometry detects binding as a change in optical thickness at a sensor tip.

B1: Ab1126: LS2A R4M32 as anti-EpCAM T-LITE; parental Ab 1094 (protein)
scFv-Fc: QVQLVQSGAEVKKPGASVKVSCKASGYTFTSYWMHWVRQHPGQGLEWMGMIHPNSGGTNYAQKFQGRVTMTRDTSTSTVYMELSSLRSEDTAVYYCAMGDYVSRDYWGQGTLVTVSSGGGGSGGGGSGGGGSEIVLTQSPGTLSLSPGERATLSCRASSSVSSSYLHWYQQKPGQAPRLLIYSTSSRATGIPDRFSGSGSGTDFTLTISRLEPEDFAVYYCQQYSGAQFTFGQGTKLEIKGGGGS[human IgG1 Fc with changes left out]
light: DIQMTQSPSSLSASVGDRVTITCSASSSVSSGNFHWYQQKPGKAPKLLIYRTSNLASGVPSRFSGSGSGTDYTLTISSLQPEDFATYYCQQWSGYPYTFGQGTKVEIKRTVAAPSVFIFPPSDEQLKSGTASVVCLLNNFYPREAKVQWKVDNALQSGNSQESVTEQDSKDSTYSLSSTLTLSKADYEKHKVYACEVTHQGLSSPVTKSFNRGEC
heavy: EVQLVESGGGLVQPGGSLRLSCAASGFTFSNYWMNWVRQAPGKGLEWVAQIRVKSENFATHYADSVKGRFTISRDDSKSTVYLQMNSLRAEDTAVYYCTLYDGFSWGQGTLVTVSSASTKGPSVFPLAPSSKSTSGGTAALGCLVKDYFPEPVTVSWNSGALTSGVHTFPAVLQSSGLYSLSSVVTVPSSSLGTQTYICNVNHKPSNTKVDKKV[human IgG1 Fc with changes left out]
Consider B1, for which, in data set [1] (LS2A R4 variants (Table 21)), the “TM (° C.)” value amounted to 59.1 °C. Further, the “T-cell mediated cellular cytotoxicity in co-culture” value in the data set on HCT-116 target cells (anti-EpCAM T-LITE, FIG. 25) was “comparable”. In addition, the “T-cell activation in co-culture” value in data set [2] was “comparable”.

B2: Ab1096: LS2A indinavir binding domain, FIGS. 5A-5E (antibody)
heavy: QVQLVQSGAEVKKPGASVKVSCKASGYTFTSYFMHWVRQHPGQGLEWMGMIHPNSGGTNYAQKFQGRVTMTRDTSTSTVYMELSSLRSEDTAVYYCAMGDYVSRDYWGQGTLVTVSSGGGGSGGGGSGGGGSEIVLTQSPGTLSLSPGERATLSCRASSSVSSSYLHWYQQKPGQAPRLLIYSTSSRATGIPDRFSGSGSGTDFTLTISRLEPEDFAVYYCQQYSGYQFTFGQGTKLEIKGGGGS[human IgG1 Fc with changes left out]
light: B1 light
modifications: knob heavy chain missing; REGION 1..471: note = Ab1096 HC Hole scFv-Fc; REGION 1..215: note = Ab1096 LC Knob
As for B2, in data set [1] (LS2A R4 variants (Table 21)), the “TM (° C.)” value was 54.8 °C. The molecule further had a Kd in data set [3] of 15 nM.

B3: Ab1059: anti-EpCAM T-LITE antibody, preferred 2+1 format (protein)
light: B1 light
heavy 1: QVQLVQSGAEVKKPGASVKVSCKASGYTFTSYWMHWVRQHPGQGLEWMGIIHPNSGGTSYAQKFQGRVTMTRDTSTSTVYMELSSLRSEDTAVYYCAMGDYVSRDYWGQGTLVTVSSGGGGSGGGGSGGGGSEIVLTQSPGTLSLSPGERATLSCRASSSVSSSYLHWYQQKPGQAPRLLIYSTSSRATGIPDRFSGSGSGTDFTLTISRLEPEDFAVYYCQQYSGYQFTFGQGTKLEIKGGGGS[human IgG1 Fc with changes left out]
heavy 2: EVQLVESGGGLVQPGGSLRLSCAASGFTFSNYWMNWVRQAPGKGLEWVAQIRVKSENFATHYADSVKGRFTISRDDSKSTVYLQMNSLRAEDTAVYYCTLYDGFSWGQGTLVTVSSASTKGPSVFPLAPSSKSTSGGTAALGCLVKDYFPEPVTVSWNSGALTSGVHTFPAVLQSSGLYSLSSVVTVPSSSLGTQTYICNVNHKPSNTKVDKKV[human IgG1 Fc with changes left out]
modifications: REGION 1..215: note = Ab1059 Hole LC; REGION 1..471: note = Ab1059 Knob HC; REGION 1..446: note = Ab1059 Hole HC
notes: anti-EpCAM T-LITE antibody, preferred 2+1 format
For B3, in the data set on HCT-116 target cells, the “TDCC in the absence of indinavir / indinavir dependence” value is “significant amount of indinavir-independent killing”.

B4: Ab1089: anti-EpCAM T-LITE antibody (protein)
light: B1 light
heavy: EVQLVESGGGLVQPGGSLRLSCAASGFTFSNYWMNWVRQAPGKGLEWVAQIRVKSENFATHYVDSVKGRFTISRDDSKSTVYLQMNSLRAEDTAVYYCTLYDAFSWGQGTLVTVSSASTKGPSVFPLAPSSKSTSGGTAALGCLVKDYFPEPVTVSWNSGALTSGVHTFPAVLQSSGLYSLSSVVTVPSSSLGTQTYICNVNHKPSNTKVDKKV[human IgG1 Fc with changes left out]
modifications: knob heavy chain missing; REGION 1..215: note = Ab1089 Hole LC; REGION 1..445: note = Ab1089 Hole HC
notes: anti-EpCAM T-LITE antibody
B4: in data set [1] (thermostability by DSF, Table 27), the “TM (° C.)” value came to 71 °C. The “TDCC in the absence of indinavir / indinavir dependence” value in the data set on HCT-116 target cells is reported as “significant amount of indinavir-independent killing”.
